Measured values: the supplement of paper PMC3334620
The full ranking holds about 33,000 sequences; the median of “E-score (-0.5 to 0.5)” is about -0.041, and the highest 2% start at about 0.37. The list shows a part of the results.

molecular target: T1, Ecm22 (UniProt Q05958); experiment: PBM E-score (8-mer binding enrichment) (E-score (-0.5 to 0.5)); higher = stronger / more preferred TF binding; most listed sequences are background and not binding sites; settings: protein concentration: 200 nM; construct: GST-full length
T1 sequence: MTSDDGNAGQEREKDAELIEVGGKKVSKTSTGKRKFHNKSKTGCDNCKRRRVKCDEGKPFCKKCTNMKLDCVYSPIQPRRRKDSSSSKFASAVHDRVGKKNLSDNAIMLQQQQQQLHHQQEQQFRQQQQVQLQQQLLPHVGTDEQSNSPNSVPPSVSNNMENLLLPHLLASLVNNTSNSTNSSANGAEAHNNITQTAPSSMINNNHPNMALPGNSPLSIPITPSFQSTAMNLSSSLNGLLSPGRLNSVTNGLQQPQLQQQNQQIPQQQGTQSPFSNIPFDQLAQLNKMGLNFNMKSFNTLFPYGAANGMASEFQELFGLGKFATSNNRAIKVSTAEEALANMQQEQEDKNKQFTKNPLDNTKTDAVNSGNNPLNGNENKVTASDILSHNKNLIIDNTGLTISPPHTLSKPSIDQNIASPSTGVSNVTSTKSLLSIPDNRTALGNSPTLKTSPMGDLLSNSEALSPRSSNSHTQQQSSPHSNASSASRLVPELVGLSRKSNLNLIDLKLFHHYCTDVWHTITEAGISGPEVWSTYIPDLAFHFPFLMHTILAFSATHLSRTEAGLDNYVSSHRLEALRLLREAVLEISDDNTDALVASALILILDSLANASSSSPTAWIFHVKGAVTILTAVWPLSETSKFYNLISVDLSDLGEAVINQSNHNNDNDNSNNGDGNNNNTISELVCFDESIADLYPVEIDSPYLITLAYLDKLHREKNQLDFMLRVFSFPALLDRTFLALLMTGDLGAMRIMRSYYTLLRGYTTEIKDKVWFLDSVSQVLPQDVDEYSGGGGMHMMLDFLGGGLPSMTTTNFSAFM
Procedure: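 Universal 'all 10-mer' protein binding microarrays (Agilent AMADID 015681) probed with GST-tagged S. cerevisiae TFs (full-length or DBD) made by in vitro transcription/translation (PURExpress), about 100-200 nM. Bound TF was detected with fluorescent anti-GST. Each ungapped 8-mer (which stands for itself and its reverse complement) is scored by the PBM enrichment score (E-score), a modified Wilcoxon-Mann-Whitney statistic from -0.5 to +0.5, computed with the Universal PBM Analysis Suite. Scale: above 0.35 generally sequence-specific binding.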

Row | Sequence | PBM E-score
1 | GGAGGTGA | -0.0745
2 | TCCATCAA | 0.0348
3 | GATGCTTA | -0.175
4 | AGTCAACC | -0.0824
5 | GGCATTAA | 0.0453
6 | GGCTGCAC | -0.163
7 | AAGTATCT | 0.0197
8 | GCGCAGAA | -0.0347
9 | AGAATGTG | -0.031
10 | CCTGCCCG | -0.19
11 | GTGAGATA | -0.0685
12 | CACGCCAG | 0.0176
13 | AGACTAAA | -0.131
14 | CTTTACCA | -0.226
15 | CCGTGCCG | 0.203
16 | CCACGAAG | 0.0223
17 | ATCCGAGC | 0.248
18 | CGTACAAA | 0.412
19 | ACTATCTA | 0.1
20 | ATTCCGTG | -0.0624
21 | CAGAAGAG | -0.143
22 | CCGTCGCG | 0.229
23 | GAGAAGAC | -0.0299
24 | AGGAAGAT | -0.123
25 | AAATTTGT | 0.14

Row | Sequence | PBM E-score
26 | GGTGTTTA | -0.0272
27 | GTTCGGGA | 0.0627
28 | CCGAGAGG | 0.0023
29 | GAGCAAGA | -0.0825
30 | CAGCCTCG | 0.0801
31 | AAATCTAG | -0.139
32 | ATGCCAAC | 0.0326
33 | CAACGATA | 0.263
34 | AGGAGTCG | -0.0364
35 | GCGACTGA | -0.123
36 | GTGTTAGA | -0.0145
37 | CAGCACAG | -0.186
38 | AGATCCGC | 0.0114
39 | GCTGGCAA | -0.124
40 | TCAGGCGA | -0.194
41 | ATTAGTGC | 0.145
42 | GAACAATA | 0.183
43 | AATAGGGA | -0.103
44 | CACAGCGG | -0.103
45 | CTCACGCA | 0.0186
46 | CCTGGATC | -0.323
47 | ATCTTCTC | -0.0584
48 | CTGCGCAG | 0.0545
49 | CCATGCCC | -0.265
50 | ACTTGTTA | -0.185

Row | Sequence | PBM E-score
51 | ACCCGCAA | -0.158
52 | CGAACCTA | 0.00754
53 | ATTATAAC | -0.0721
54 | CTGGGCCA | -0.357
55 | AGTGGCAC | -0.164
56 | CGGTAACC | 0.091
57 | ACCGCTCC | 0.166
58 | AACAGTCA | -0.192
59 | ACAGTCAT | -0.181
60 | ATGAAGAG | -0.104
61 | GTTCAAAC | 0.122
62 | ATGACTCA | -0.0714
63 | CTTCGAAA | 0.0207
64 | AAGTGAGG | -0.0564
65 | CAAGAATA | -0.0556
66 | ATCTACGC | 0.146
67 | TGGTAGAA | -0.203
68 | TAAAAGAA | 0.0634
69 | CAGGCGGG | -0.161
70 | CCCTACCG | -0.162
71 | CATACTGC | 0.00327
72 | CTTCGATC | 0.0857
73 | TGCACACA | 0.0025
74 | CATGGCCG | -0.123
75 | CACAACGG | -0.0014

Row | Sequence | PBM E-score
76 | ATGGAAGG | -0.299
77 | GATCCGTA | 0.284
78 | CCTTGAGC | -0.247
79 | GAACCTGC | 0.102
80 | AAGCCGTC | -0.0956
81 | ACTGTCAT | -0.073
82 | AGATTTAC | -0.0302
83 | GGAGAGAA | -0.148
84 | AAACAGGC | -0.33
85 | AAGAACAA | -0.0038
86 | ATGGTACC | -0.225
87 | ATGGTCTG | -0.0872
88 | CATTCGAA | 0.113
89 | ATTCGTTG | 0.277
90 | GATGGGAC | 0.00494
91 | GATGTAAC | -0.0826
92 | AAACGGGC | 0.32
93 | TCACTCAA | -0.219
94 | GCTTACCC | -0.0492
95 | AAGTATGC | -0.0374
96 | ATATTTCG | 0.267
97 | GCTTAATA | 0.0328
98 | ATGCCGTC | 0.0463
99 | AAAGCTCC | -0.253
100 | AACACTCC | -0.116

Row | Sequence | PBM E-score
101 | CTCCGACC | -0.0576
102 | AACGGGTG | 0.245
103 | CCCCGGCG | -0.141
104 | ACCCGCTG | -0.25
105 | CAACTCCG | -0.108
106 | AGCTAAGC | -0.0756
107 | AACGTAGA | 0.134
108 | CTCTTGCC | -0.206
109 | ATCCGCAA | 0.0725
110 | CCTGCCAC | -0.332
111 | TCCGACAA | 0.121
112 | CTTTTCGC | 0.125
113 | TCAAAACA | -0.0331
114 | ATGCTCTA | -0.131
115 | AATTTGTC | -0.0119
116 | CGGGTGAG | -0.18
117 | TATAAGAA | -0.0447
118 | GAATGAAA | 0.0272
119 | CTTATAAG | -0.0404
120 | CGGTGTCA | -0.0844
121 | ACTAGATG | -0.0195
122 | CCTTGTAG | -0.188
123 | ATTCGGAG | -0.00698
124 | GGGCCCGA | -0.0195
125 | CATAATGA | -0.119

Row | Sequence | PBM E-score
126 | GAAGTCAC | -0.252
127 | ATTGTGCA | -0.11
128 | CTCTCAAG | -0.153
129 | CTCCCCCC | -0.232
130 | TATTTACA | -0.0168
131 | ATCGACTG | 0.076
132 | AGCTCTTC | 0.013
133 | CAGCAACA | -0.0467
134 | ATCAATCG | 0.0988
135 | CCGGGCAC | -0.0464
136 | AGGCACCC | -0.308
137 | CGATGGTC | -0.0239
138 | AGGTGATA | -0.177
139 | AGCTTAGA | -0.118
140 | CGTCAACA | -0.18
141 | CAAGAGTG | -0.109
142 | AGCTTACT | -0.211
143 | TACGAAGA | 0.444
144 | AAGGCAGC | -0.24
145 | ACATATTG | -0.0107
146 | CACCCGGG | -0.134
147 | CCAGAAAG | -0.00612
148 | CGGGAGCC | 0.00532
149 | CCTGTCCG | -0.00504
150 | CATATGCA | 0.148

Row | Sequence | PBM E-score
151 | CCTGCTTC | -0.126
152 | GTGCAAAC | 0.133
153 | GGAAGGCC | -0.21
154 | ACCCAAAG | -0.263
155 | GTGTAGCA | -0.251
156 | GCAACTGC | 0.126
157 | CCAGAGAA | 0.0432
158 | ACTTGGGG | -0.237
159 | AATGCCCA | -0.278
160 | GCCCATTA | 0.0743
161 | ATCTCGGC | 0.0673
162 | GACAAACC | -0.0829
163 | CAAAAAAC | -0.0428
164 | ACAATAAG | -0.058
165 | CGTTCCAG | 0.418
166 | TACAGAGA | -0.076
167 | ACGCCCCA | 0.128
168 | CTTCTTGC | 0.0469
169 | GGGAAGCA | -0.151
170 | ACACTGGC | -0.0328
171 | CGCCAGCC | 0.00328
172 | CGGCGGAC | -0.00158
